# Results: PubChem BioAssay AID686979 (National Center for Advancing Translational Sciences (NCATS), 2013)
# Several values for one entry are separate records, joined by “and”; a condition that tells them apart may be missing. Equal values may be shown once. The campaign covered roughly 420,000 compounds. About 50,000 (12%) were called active. Inconclusive results, whose numbers are uncertain, are shown with a selection of clear calls. Calls come from the whole dose curve; as a rule, active = well fitted inhibition curve with a large enough effect; inconclusive = small, poorly fitted or top-dose-only effect; inactive = flat fitted curve, though single readings scatter. Where the call is inconclusive, the potency comes from a doubtful curve fit.
# Experiment: qHTS for Inhibitors of human tyrosyl-DNA phosphodiesterase 1 (TDP1): qHTS in cells in presence of CPT; note: nearly all actives have a fitted effect of over 55% in size
# Conditions: chicken DT40 Tdp1-/-;hTDP1 cells + 20 nM CPT, ATP luminescence, 48 h; activity change, negative = growth inhibition: at 46.2 µM (top of the series) unless noted
# How it was run: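 Chicken DT40 Tdp1-/- cells complemented with human TDP1, 400 cells/well, exposed to compounds plus 20 nM camptothecin for at least 48 h at 37 C; viability read as ATP content by CellTiter-Glo luminescence.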
# % is set by controls: 0 for no effect and ±100 for the full control effect; potency is the fitted concentration of half-maximal effect; tags give direction and shape of the fitted curve.
SMILES,Potency,"activity change, negative = growth inhibition"
COc1ccccc1N(CC(=O)NCCc1ccccc1)C(=O)CCC(=O)Nc1cc(C)ccn1,inactive,–
Cc1cc2nc(-c3ccccc3)c(Cc3cccc(F)c3)n2c(C)c1Br,"inconclusive: 18.4 µM [inhibitor, single point]",–
CC(C)c1nc2ccc(C(=O)Nc3ccccc3F)cc2o1,active: 7.31 µM,–
COc1cc(C2C(C#N)=C(N)Oc3cc(N)ccc32)cc(OC)c1OC (stereo not drawn),active: 0.92 µM,–
Cc1coc2c1C(=O)C(=O)c1c-2ccc2c(C)cccc12,active: 2.91 µM,–
COc1ccc(CN2C(=O)c3ccccc3C2c2nnnn2-c2ccc3c(c2)OCCO3)cc1OC (stereo not drawn),active: 14.6 µM,–
O=C(Nc1ccccc1Cl)c1sc2cccc(Cl)c2c1Cl,inactive,–
O=C(c1ccc(Cl)cc1Cl)N1CCc2ccccc21,"inconclusive: 29.1 µM [inhibitor, single point]",–
C[C@@]12CCC=C[C@H]1[C@H](c1ccccc1Br)N(Cc1ccccc1)C2=O,"inconclusive: 20.6 µM [inhibitor, single point]",–
CC(Oc1ccc2c(-c3ccccc3)cc(=O)oc2c1)C(=O)NCCCn1ccnc1 (stereo not drawn),active: 23.1 µM,–
CCNC(=O)c1cc2c(c(-c3cccc(-c4cccc(C(=O)N(C)C)c4)c3)n1)[C@@H](CCO)N(S(=O)C(C)(C)C)C2 (stereo partly drawn),"inconclusive: 29.1 µM [inhibitor, single point]",–
O=C(CN1C(=O)C2C3C=CC(C4CC34)C2C1=O)Nc1cccc2ncccc12 (stereo not drawn),active: 20.6 µM,–
CC(C)c1ccc(S(=O)(=O)Nc2ccc(O)c(Sc3ncn[nH]3)c2)cc1,"inconclusive: 29.1 µM [inhibitor, single point]",–
CCN1C(=O)/C(=C\c2cn(CCC#N)nc2-c2ccc(F)cc2)SC1=S,"inconclusive: 18.4 µM [inhibitor, single point]",–
COc1ccc2nc(Nc3nc(-c4cc5ccccc5oc4=O)cs3)sc2c1,active: 5.8 µM,–
O=C(CCNC(=O)c1ccccc1)NNC(=O)COc1ccccc1Cl,inactive,–
COc1ccccc1/C=C/C(=O)OCC(=O)c1c(N)n(C)c(=O)n(C)c1=O,inactive,–
CN1C(C(=O)Nc2ccc(OC(F)(F)F)cc2)=CC(c2cccs2)=NS1(=O)=O,"inconclusive: 25.9 µM [inhibitor, single point] and inconclusive: 5.17 µM [inhibitor, single point]",–
CC(=O)c1cccc(OCC(=O)Nc2ccccc2N2CCOCC2)c1,active: 18.4 µM,–
COc1cccc(NC(=O)Cn2c(=O)n(Cc3ccccc3)c(=O)c3ccccc32)c1,"inconclusive: 11.6 µM [inhibitor, single point]",–
c1cc(-c2ccncc2)ccn1,active: 10.3 µM,–
COc1cc(OC)c(OC)cc1/C=C/c1ccc2ccccc2[n+]1C,active: 0.891 µM,–
CCCOc1ccc(-c2nc(C#N)c(N3CCN(C)CC3)o2)cc1,"inconclusive: 25.9 µM [inhibitor, single point]",–

SMILES,Potency,"activity change, negative = growth inhibition"
Cc1ccc(N(CC(=O)Nc2ccc(Cl)cc2)S(=O)(=O)c2cccc3nonc23)cc1,"inconclusive: 29.1 µM [inhibitor, single point]",–
Nc1nc(=S)[nH]c2c1C1(CCCC1)Cc1ccccc1-2,"inconclusive: 32.6 µM [inhibitor, single point]",–
c1ccc2c(c1)OCC(c1csc3ncnc(N4CCCCC4)c13)O2 (stereo not drawn),"inconclusive: 29.1 µM [inhibitor, single point]",–
Cc1ccc(NC(=O)Cc2coc3ccc(C(C)C)cc23)cc1Cl,"inconclusive: 29.1 µM [inhibitor, single point]",–
COc1cccc(CC2(CO)CCCN(Cc3cc4ccccc4[nH]3)C2)c1 (stereo not drawn),"inconclusive: 29.1 µM [inhibitor, single point]",–
O=C(c1cccc(F)c1)N1CCC[C@@]2(CCN(Cc3ccccc3)C2)C1,inactive,–
CC(=O)Nc1ccc(OS(=O)(=O)c2ccc([N+](=O)[O-])cc2)cc1,active: 18.4 µM,–
O=C(CN1c2cccc3cccc(c23)S1(=O)=O)Nc1ccccc1Br,inactive,–
CO/N=C/NC(=O)c1ccc([N+](=O)[O-])c(CS(=O)(=O)c2ccc(Cl)cc2)c1,active: 7.31 µM,–
CC1CCN(c2ccc(NC(=O)Cn3c(=O)oc4ccccc43)cc2)CC1,–,inconclusive: -26.4% [inhibitor]
Cc1cccc(N2C(=O)/C(=C\c3ccc(OC(F)F)cc3)c3ccccc3C2=O)c1,"inconclusive: 23.1 µM [inhibitor, single point]",–
CCOC(=O)c1ccc(NC(=S)NC(=O)c2nn(CC)cc2Br)cc1,"inconclusive: 20.6 µM [inhibitor, single point]",–
O=C(NCc1ccccc1)Nc1cccn(Cc2ccccc2Cl)c1=O,"inconclusive: 20.6 µM [inhibitor, single point]",–
CCNc1c(NS(=O)(=O)c2ccc([N+](=O)[O-])cc2)c(=O)oc2ccccc12,"inconclusive: 29.1 µM [inhibitor, single point]",–
O=C(COc1ccccc1)Nc1ccc2nc(SCC(=O)N3CCOCC3)sc2c1,active: 18.4 µM,–
C/C(=N\OCC(=O)Nc1ccccc1C(C)(C)C)c1ccc2c(c1)OCCO2,"inconclusive: 29.1 µM [inhibitor, single point]",–
CCOC1CCCc2oc(-c3ccc(N(C)C)cc3)c(C(=O)OC)c21 (stereo not drawn),"inconclusive: 29.1 µM [inhibitor, single point]",–
Cc1ccc(N2CN(Cc3cccnc3)CNC2=S)cc1,inactive,–
Cc1ccc(-n2ncc(C(=O)N3CCCCC3)c2C2CCN(C(=O)OC(C)(C)C)CC2)c(C)c1,"inconclusive: 14.6 µM [inhibitor, single point]",–
COc1ccc(-n2c(=O)[nH]c3cc(C(=O)NCCc4ccccc4)ccc3c2=O)cc1OC,"inconclusive: 25.9 µM [inhibitor, single point] and inconclusive: 29.1 µM [inhibitor, single point]",–
COc1ccc2c(CSc3nc4nc(C)cc(C)n4n3)cc(=O)oc2c1,"inconclusive: 20.6 µM [inhibitor, partial curve]",–
O=C(Cc1ccccc1)N(c1ccccc1)c1ccccc1,"inconclusive: 25.9 µM [inhibitor, single point]",–
O=C(CSCc1c(F)cccc1Cl)NCc1ccncc1,"inconclusive: 16.4 µM [inhibitor, single point]",–

SMILES,Potency,"activity change, negative = growth inhibition"
COc1ccccc1NS(=O)(=O)c1ccc(N/N=C/c2c(C)nn(-c3ccccc3)c2N2CCCC2)c([N+](=O)[O-])c1,"inconclusive: 2.06 µM [inhibitor, full curve]",–
O=C(CSc1nnc(-c2ccc(F)cc2)o1)N1CCCc2ccccc21,"inconclusive: 29.1 µM [inhibitor, single point]",–
Cn1c(CN2CCN(c3ccc(Cl)cc3)CC2)nc2ccccc21,"inconclusive: 29.1 µM [inhibitor, single point]",–
O=C(NNC(=O)C1CC(=O)N(Cc2ccccc2)C1)c1ccc(Br)cc1 (stereo not drawn),inactive,–
COc1ccccc1-c1ccc(SCC(=O)NCCc2ccccc2)nn1,"inconclusive: 11.6 µM [inhibitor, partial curve]",–
COc1ccc(OC)c(NC(=O)CN(Cc2ccc(F)cc2)C2CCCCC2)c1,"inconclusive: 20.6 µM [inhibitor, single point]",–
Cc1nn(C)cc1CNC(=O)c1cnn2c1NC(c1ccc(Br)cc1)CC2C(F)(F)F (stereo not drawn),"inconclusive: 25.9 µM [inhibitor, single point]",–
Cc1cc(C)c2nc(N3CCCN(C(=O)c4cnccn4)CC3)c(C#N)cc2c1,active: 23.1 µM,–
COc1cc(OC)c(C2CC(=O)N3CN(c4ccccc4)CSC3=C2C#N)cc1OC (stereo not drawn),"inconclusive: 7.31 µM [inhibitor, partial curve]",–
Fc1ccc(-c2nc(Nc3cccc(C(F)(F)F)c3)nc3c2COc2ccccc2-3)cc1,"inconclusive: 29.1 µM [inhibitor, single point]",–
COc1ccc(-n2c(SCC(=O)NCc3ccc(C)cc3)nc3n[nH]c(C)c3c2=N)cc1,active: 6.51 µM,–
CC(C)(C)C1CCc2sc(-c3nnc(CCl)o3)cc2C1 (stereo not drawn),"inconclusive: 29.1 µM [inhibitor, single point]",–
COc1ccc(OCC(=O)OCC(=O)NC2CCCC2)cc1,inactive,–
COc1ccc(S(=O)(=O)N(C)C[C@@H]2OCc3cn(nn3)CCCC(=O)N([C@H](C)CO)C[C@H]2C)cc1,inactive,–
COC(=O)c1sccc1S(=O)(=O)N(CC(=O)NCc1ccc(C)cc1)c1ccc(C)cc1,active: 23.1 µM,–
Cc1ncc(CO)c(/C=N/NC(=O)c2cc3c(s2)CCCC3)c1O,active: 5.8 µM,–
COc1ccc(N2CCN(CCCNC(=O)Nc3ccccc3)CC2)cc1,"inactive and inconclusive: 13 µM [inhibitor, partial curve]",–
CCCS(=O)(=O)Nc1cccc(-c2ccc3nnc(C)n3n2)c1,"inconclusive: 25.9 µM [inhibitor, single point]",–
COc1ccc(C2C=C(c3ccc(Cl)c(Cl)c3)Nc3ncnn32)cc1 (stereo not drawn),"inconclusive: 29.1 µM [inhibitor, single point]",–
CCOc1ccc(NC(=O)NC(C)CC)cc1 (stereo not drawn),"inconclusive: 2.31 µM [inhibitor, full curve]",–
CCn1nc(C)c(CN2Cc3ccccc3OC(c3ccccc3OC)C2)c1C (stereo not drawn),–,inactive: 2.71% [at 9.04 µM]
CCOC(=O)Cc1cn(C(=O)OC(C)(C)C)c2ccccc12,–,inconclusive: -31.1% [inhibitor]
